# Test results as given in the supplement of paper PMC10338343.
# ± gives the standard deviation. The entries are a selection whose mix differs from that of the whole data set.
# System: MIWI (PIWIL1) piRISC loaded with piRNA #1 (30 nt)
# Assay: pre-steady-state target cleavage rate (min^-1); MIWI and MILI are mouse PIWI proteins and EfPiwi is from a freshwater sponge; tags in brackets are library labels; higher = faster piRNA-guided slicing of the target
# Conditions: guide: piRNA #1 5'p-UGAGGUAGUAGGUUGUAUAGUAUCCAGAGG; auxiliary factor: 500 nM mouse GTSF1
# Outline: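 The pre-steady-state cleavage rate was obtained by Cleave-'n-Seq with a burst-and-steady-state fit. A transcribed, DNA-blocked target RNA library (0.1 nM) was mixed with 1 nM active affinity-purified piRISC carrying one synthetic guide, with or without 500 nM GTSF1 partner protein, in HEPES–potassium acetate buffer at 33 °C for 0–8 or 0–960 min. Uncleaved targets were sequenced and normalised to depth and to weakly complementary targets, with three trials pooled and k3 capped at 0.0001 min^-1.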
row,Sequence,pre-steady-state target cleavage rate
1,GGAGACCUAUCUUUACAACCUACUACCUCA,0.247 ± 0.037
2,GGAGACCUUACUAUACAUGGUACUACCUCA,0.00452 ± 0.0025
3,GGAGACCAAACAAUACAACCUACUACCUCA,0.377 ± 0.16
4,GGAGAGGAUACUAUAUCAACCUACUACCUCA,0.381 ± 0.06
5,GGAGACCUAUCUAUACAACCUACUGCCUCA,0.381 ± 0.049
6,GGAGACCUUACUAUACAACCUACUACCUCG [g2:g22:cont:t1G],1.17 ± 0.068
7,GGAGAGGAUACAAUACUACCUACUACCUCA,0.74 ± 0.052
8,GGAGACCUAACUAUACAACCUACUACCUCC [g2:g21:cont:t1C],0.927 ± 0.066
9,GGUCAGGAUAGUAUACAACCUACUACCUCA,0.505 ± 0.035
10,GGAGACCUAUGUAUACAAGCUACUUCCUCA,0.00535 ± 0.0024
11,GGAGACGAUACUAUCACAACCUACUACCUCA,1.54 ± 0.12
12,GGUGUGGAUUCUAUACAACCUACUACCUCA,1.83 ± 0.12
13,GGACUGGAUUCUAUACAUCCUACUACCUCA,1.32 ± 0.1
14,GGAGAGGAUACUAUACUACCUACUACCACA,1.05 ± 0.07
15,GGUCUCGAUACUAUACAACCUACUACCUCA,1.83 ± 0.12
16,GCUCUGGAUACUAUAGAACCUACUACCUGA,0.0822 ± 0.021
17,GGAGACCAAACUAUACAAGCUACUACCUCA,0.517 ± 0.054
18,CCUGUGGAUACUAUACUACCUACUACCUCA,1.51 ± 0.096
19,GGUCUGCAUACUAUACAACCUACAACCUCA,0.292 ± 0.035
20,GGAGACGAUUCUAUACUACCUACUACCUCA,1.11 ± 0.1

row,Sequence,pre-steady-state target cleavage rate
1,GGAGACCUAUCUAUACAACCUUCUUCCUCA,0.0147 ± 0.0041
2,GGAGACCUAUGUUUACAACCUUCUACCUCA,0.00267 ± 0.0024
3,GGACUGGAUACUAUACAACCGACUACCUCA,0.00859 ± 0.0015
4,GGAGAGGAUACUAUACAACCUACUACCGUCA,0.0741 ± 0.011
5,GCUCUGGAUACUUUACAACCUACAACCUCA,0.804 ± 0.05
6,GGAGACGAAACUAUACAACCUACUAGCUCA,0.413 ± 0.061
7,GGACUGCAUACUAUACAAGCUACUACCUCA,0.938 ± 0.066
8,CCUCUGGAUACUAUACAAGGAACUACCUCA,0.0074 ± 0.0029
9,CCUCUGGAUACUAUACAUCCUAGUACCUCA,0.194 ± 0.031
10,GGACUGGAUACUAAAGAACCUACUACCUCA,1.22 ± 0.077
11,GCUCUGGAUACAAUACAACCUUCUACCUCA,0.619 ± 0.036
12,GGAGACCUUACUUUACAACCUUCUACCUCA,0.225 ± 0.022
13,GGAGACGAUACUAUUCAACCUACUACGUCA,0.67 ± 0.06
14,GGAGACCUAACUAUACAAGCUACUACCACA,0.65 ± 0.043
15,GGAGUGUAUACUAUACAACCUACUACCUCA,1.54 ± 0.092
16,GGAGACCAUACUAAUACAACCUACUACCUCA,0.978 ± 0.08
17,GGAGACGAUACUAUACAACCUACAACCUGA,0.26 ± 0.078
18,GGAGACCUAACUAUACAACCUUCUACCUCA,0.206 ± 0.021
19,GGAGAGGAUACUAUACAACCAACAACCUCA,0.045 ± 0.0063
20,GGAGAGGAAACUUUACAACCUACUACCUCA,1.46 ± 0.1
